Assay results: the supplement of paper PMC8813932
Structures can show the parent of a compound that is named as a salt. ± gives the standard deviation of the averaged measurements. The list shows a part of the results. Many values rest on one well or one pass, so single values are uncertain.

Key:
Test in all cases: log2 surviving fraction relative to plate median (drug vs vehicle, or drug+dl922-947 vs dl922-947 alone); ovarian cancer lines: OVCAR4 is platinum-sensitive while Ov4Cis resists cisplatin and Ov4Carbo carboplatin; higher = more cell survival
Conditions in all cases: compound concentration: 10 uM, 192 h
OVCAR4 = system: OVCAR4
Ov4Carbo = system: Ov4Carbo
Ov4Cis = system: Ov4Cis
[1] = dl922-947 oncolytic adenovirus co-treatment: MOI 10
[2] = dl922-947 oncolytic adenovirus co-treatment: none

SMILES	log2 surviving fraction (OVCAR4; [1])	log2 surviving fraction (OVCAR4; [2])	log2 surviving fraction (Ov4Carbo; [1])	log2 surviving fraction (Ov4Carbo; [2])	log2 surviving fraction (Ov4Cis; [1])	log2 surviving fraction (Ov4Cis; [2])
CNCC(=O)c1ccc(O)c(O)c1 [Adrenalone HCl]	-0.484 ± 0.54	-1.07 ± 0.27	-0.0342	0.303	-1.47	-0.518
COC(=O)/C=C/C(=O)OC [Dimethyl Fumarate]	0.00104 ± 0.68	0.351 ± 0.72	-0.713	0.11	1.03	0.88
CC(=O)S[C@@H]1CC2=CC(=O)CC[C@]2(C)[C@H]2CC[C@@]3(C)[C@@H](CC[C@@]34CCC(=O)O4)[C@H]12 [Spironolactone]	0.313 ± 0.56	-0.974 ± 0.49	-0.335	0.369	0.154	-0.585
Cc1nnc(C(C)C)n1C1C[C@H]2CC[C@@H](C1)N2CC[C@H](NC(=O)C1CCC(F)(F)CC1)c1ccccc1 (stereo in doubt) [Maraviroc]	0.314 ± 0.13	0.954 ± 0.072	-0.628	-0.178	0.71	-0.344
COc1ccc2cc([C@H](C)C(=O)O)ccc2c1 [Naproxen (Aleve)]	0.214 ± 0.89	0.327 ± 0.91	1.35	0.318	-0.0423	-1.24
CCN(CC)CCOCCOC(=O)C(CC)(CC)c1ccccc1 [Oxeladin Citrate]	-2.26 ± 0.028	-1.02 ± 0.075	-2.97	-2.07	-1.81	-0.392
NCCCCCC(=O)O [Aminocaproic acid (Amicar)]	-0.205 ± 0.78	0.191 ± 0.095	0.302	-0.374	-0.271	0.229
CC(=O)O[C@H]1C(=O)[C@@]2(C)[C@H]([C@H](OC(=O)c3ccccc3)[C@]3(O)C[C@H](OC(=O)[C@H](O)[C@@H](NC(=O)c4ccccc4)c4ccccc4)C(C)=C1C3(C)C)[C@]1(OC(C)=O)CO[C@@H]1C[C@@H]2O [Paclitaxel (Taxol)]	-5.35 ± 0.55	-5.34 ± 6.7	-4.96	-8.1	-4.42	-6.69
CCC1(c2ccc(N)cc2)CCC(=O)NC1=O (stereo not drawn) [Aminoglutethimide (Cytadren)]	0.125 ± 0.49	0.57 ± 1.1	-1.06	-0.758	1.08	0.449
CN(C)c1ccc(O)c2c1C[C@H]1C[C@H]3[C@H](N(C)C)C(O)=C(C(N)=O)C(=O)[C@@]3(O)C(O)=C1C2=O [Minocycline HCl]	1.36 ± 0.19	0.4826 ± 0.0029	1.13	0.817	1.09	-1.61
CC(C(=O)O)c1cccc(Oc2ccccc2)c1 (stereo not drawn) [Fenoprofen calcium hydrate]	-0.278 ± 0.16	-0.449 ± 0.28	0.774	0.919	-0.248	0.219
CC1(C)[C@H](C(=O)O)N2C(=O)C[C@H]2S1(=O)=O [Sulbactam]	-0.832 ± 0.99	0.134 ± 0.17	0.636	-0.00723	-0.653	-0.366
CCOC(=O)c1cncn1[C@H](C)c1ccccc1 [Etomidate]	-0.195 ± 1.3	0.62 ± 0.24	-0.132	-0.433	0.561	0.601
COc1cc([C@@H]2c3cc4c(cc3[C@@H](O[C@@H]3O[C@@H]5CO[C@@H](C)O[C@H]5[C@H](O)[C@H]3O)[C@H]3COC(=O)[C@H]23)OCO4)cc(OC)c1O [Etoposide (VP-16)]	-3.89 ± 0.41	-3.52 ± 0.33	-4.18	-5.94	-6.5	-9.56
COc1ccc(CNc2nc(N3CCC[C@H]3CO)ncc2C(=O)NCc2ncccn2)cc1Cl [Avanafil]	-0.789 ± 0.082	-0.52 ± 1.7	-2.3	1.12	-2.22	-0.783
COc1ccc2cc(CCC(C)=O)ccc2c1 [Nabumetone]	0.306 ± 0.54	-0.276 ± 0.28	0.488	0.287	1.61	0.482
CNC(=C[N+](=O)[O-])NCCSCc1csc(CN(C)C)n1 [Nizatidine]	0.0978 ± 1.3	0.0498 ± 0.14	-0.534	-1.98	0.263	-0.105
CCN(CC)CCOC(=O)C(c1ccccc1)c1ccccc1 [Adiphenine HCl]	0.0723 ± 0.67	-0.119 ± 0.79	-0.227	0.161	0.144	0.67
COc1ccc(C2C(=O)c3ccccc3C2=O)cc1 [Anisindione]	-0.0654 ± 0.19	0.228 ± 0.45	0.0414	-0.00449	0.736	0.625
CC(C)CCC[C@@H](C)[C@H]1CC[C@H]2[C@@H]3CC=C4C[C@@H](O)CC[C@]4(C)[C@H]3CC[C@]12C [Cholesterol]	0.525 ± 0.5	-0.641 ± 0.61	0.742	0.893	0.178	0.764
NC(=O)CC[C@H](N)C(=O)O [L-Glutamine]	-0.694 ± 0.47	0.211 ± 0.33	0.39	-0.3	-0.206	-0.0316
OC[C@@H](O)[C@@H](O)[C@H](O)[C@@H](O)CO [Sorbitol (Glucitol)]	0.0159 ± 0.14	0.864 ± 0.96	0.938	0.717	0.148	-0.00773

SMILES	log2 surviving fraction (OVCAR4; [1])	log2 surviving fraction (OVCAR4; [2])	log2 surviving fraction (Ov4Carbo; [1])	log2 surviving fraction (Ov4Carbo; [2])	log2 surviving fraction (Ov4Cis; [1])	log2 surviving fraction (Ov4Cis; [2])
Nc1nc(N)c2nc(-c3ccccc3)c(N)nc2n1 [triamterene]	-0.646 ± 0.016	-2.84 ± 2.5	1.23	-0.128	-0.303	-0.0863
C/C(O)=C(\C#N)C(=O)Nc1ccc(C(F)(F)F)cc1 [Teriflunomide]	0.149 ± 0.74	-0.0276 ± 0.019	0.382	0.34	-0.829	0.0421
CCC[S+]([O-])c1ccc2[nH]c(NC(=O)OC)nc2c1 (stereo not drawn) [Albendazole Oxide (Ricobendazole)]	-0.365 ± 0.28	-0.979 ± 0.34	-0.443	-2.58	-0.597	-0.687
COc1cc(C(=O)NS(=O)(=O)c2ccccc2C)ccc1Cc1cn(C)c2ccc(NC(=O)OC3CCCC3)cc12 [Zafirlukast (Accolate)]	0.369 ± 1.6	0.467 ± 0.72	1.82	0.438	0.946	-0.124
CC(=O)O[C@H]1CC[C@@]2(C)C(=CC[C@@H]3[C@@H]2CC[C@]2(C)C(c4cccnc4)=CC[C@@H]32)C1 [Abiraterone Acetate (CB7630)]	-1.27 ± 0.12	-0.719 ± 0.48	0.666	-0.482	0.0373	-1.03
CCOC(=O)N1CCC(=C2c3ccc(Cl)cc3CCc3cccnc32)CC1 [Loratadine]	0.12 ± 0.57	0.257 ± 0.09	0.354	0.251	0.0992	0.63
CC(C(=O)O)c1cccc(Oc2ccccc2)c1 (stereo not drawn) [Fenoprofen calcium]	0.266 ± 0.11	-0.509 ± 0.36	0.212	1.38	-0.537	0.663
C[C@]12C=CC(=O)C=C1CC[C@@H]1[C@@H]2C(=O)C[C@@]2(C)[C@H]1CC[C@]2(O)C(=O)CO [Prednisone (Adasone)]	0.814 ± 2	0.439 ± 0.14	-0.191	0.0468	-0.163	0.281
CCc1c(Cl)c(O)c(Cl)c(O)c1C(=O)O[C@H]1[C@H](O)[C@H](OC)[C@H](OC/C2=C\C=C\C[C@H](O)/C(C)=C/[C@H](CC)[C@@H](O[C@@H]3OC(C)(C)[C@@H](OC(=O)C(C)C)[C@H](O)[C@@H]3O)/C(C)=C/C(C)=C/C[C@@H]([C@@H](C)O)OC2=O)O[C@@H]1C [Fidaxomicin]	0.214 ± 0.99	-1.78 ± 0.29	-1.21	-2.53	0.387	-0.785
Cc1c(NC(=O)c2cccnc2)c(=O)n(-c2ccccc2)n1C [Nifenazone]	0.00343 ± 0.37	-0.39 ± 1.1	1.16	0.264	0.42	-0.136
O=C1O[C@H]([C@@H](O)CO)C(O)=C1O [Vitamin C (Ascorbic acid)]	0.891 ± 0.011	0.21 ± 0.64	-0.995	0.603	0.316	0.567
Clc1ccc(C(Cn2ccnc2)OCc2csc3c(Cl)cccc23)c(Cl)c1 (stereo not drawn) [Sertaconazole nitrate]	-0.125 ± 0.27	-0.241 ± 0.81	0.556	0.142	-0.681	-0.15
CCN(CC)CCCC(C)Nc1ccnc2cc(Cl)ccc12 (stereo not drawn) [Chloroquine Phosphate]	-0.253 ± 0.26	0.541 ± 0.19	-0.203	0.526	0.587	0.719
CC(c1cc2ccccc2s1)N(O)C(N)=O (stereo not drawn) [Zileuton]	0.671 ± 0.34	0.393 ± 0.19	-0.297	1.01	0.148	0.997
CC(/C=C1\SC(=S)N(CC(=O)O)C1=O)=C\c1ccccc1 [Epalrestat]	-0.206 ± 0.4	-0.0615 ± 0.7	0.639	0.032	0.479	0.308
NNC(=O)c1ccncc1.Nc1ccc(C(=O)O)c(O)c1 [Pasiniazid]	0.299 ± 0.43	-0.168 ± 0.73	0.47	-0.00708	-0.0113	-0.181
Cc1cc(C#N)cc(C)c1Oc1nc(Nc2ccc(C#N)cc2)nc(N)c1Br [Etravirine (TMC125)]	-1.31 ± 1.1	-2.08 ± 1.3	-0.392	-3.73	-2	-5.18
CCOC(=O)c1c(CSc2ccccc2)n(C)c2cc(Br)c(O)c(CN(C)C)c12 [Arbidol HCl]	-0.414 ± 0.48	-0.567 ± 0.25	0.532	-1.06	-0.257	0.178
CCCCCCCCCCCCCCSCC(=O)OC[C@H](COP(=O)([O-])OCC[N+](C)(C)C)OC(=O)CSCCCCCCCCCCCCCC [Phosphatidylcholine]	-0.156 ± 0.79	0.439 ± 0.7	-0.627	-0.0971	-0.481	-0.086
COc1ncnc(NS(=O)(=O)c2ccc(N)cc2)c1OC [Sulfadoxine (Sulphadoxine)]	-0.242 ± 0.58	-0.138 ± 0.24	-1.07	0.239	-0.177	-0.104
CN(CCOc1ccc(CC2SC(=O)NC2=O)cc1)c1ccccn1 (stereo not drawn) [Rosiglitazone (Avandia)]	0.495 ± 1	0.523 ± 1.4	1.18	1.67	0.989	1.65
